Reference: a collection of fitness landscapes (doi:10.1016/j.celrep.2020.107928)
Over roughly 81,000 sequences, “one-hybrid fitness for binding NBS DNA” has its median near -0.1; the highest 2% begin near 0.36. The list shows a part of the results.

B1: Caulobacter ParB omega fusion; a variant is named by its letters at X, in order, B8GW30 (parent)
chain: MESVVVGEPGMSEGRRGLGRGLSALLGEVDAAPAQAPGEQLGGSREAPIEILQRNPDQPRRTFREEDLEDLSNSIREKGVLQPILVRPSPDTAGEYQIVAGERAWRAAQRAGLKTVPIMVRELDDLAVLEIGIIENVQRADLNVLEEALSYKVLMEKFERTQENIAQTIGKSXSHVANXMRLLXLPDEVQSYLVSGELTAXHARAIAAAADPVALAKQIIEGGLSVRETEALARKAPNLSAGKSKGGRPPRVKDTDTQALESDLSSVLGLDVSIDHRGSTGTLTITYATLEQLDDLCNRLTRGI

Variants of: B1
Test: one-hybrid fitness for binding NBS DNA (the Noc-binding site; scaled: cognate 1, non-cognate 0); higher = stronger binding
Conditions: with NBS DNA site
Outline: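 On M9-minus-histidine containing 0.1 mM IPTG and 5 mM 3-AT, E. coli USO cells with a HIS3 reporter, site 19 bp from the promoter, grew 48 hours at 37°C to select Caulobacter ParB libraries randomised at four specificity codons. Plasmids from before and after were Illumina-sequenced, with three replicate libraries pooled and variants under 10 reads left out. Fitness is the log change in variant-to-wild-type read ratio, rescaled against cognate and non-cognate.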

Q: For QCKT, which “one-hybrid fitness for binding NBS DNA” value is on record?
A: 0.778

Q: Which “one-hybrid fitness for binding NBS DNA” value does the source give for LPCG here?
A: ≤ 0.2

Q: For QKDW, which “one-hybrid fitness for binding NBS DNA” value is on record?
A: ≤ 0.2

Q: With WAWT as the variant, how does the “one-hybrid fitness for binding NBS DNA” value read?
A: ≤ 0.2

Q: How did the “one-hybrid fitness for binding NBS DNA” value turn out when GSKV was run?
A: ≤ 0.2

Q: Which “one-hybrid fitness for binding NBS DNA” value does the source give for TCQT here?
A: ≤ 0.2

Q: AQKD was tested. Which “one-hybrid fitness for binding NBS DNA” value did it give?
A: ≤ 0.2

Q: For PNRV, which “one-hybrid fitness for binding NBS DNA” value is on record?
A: ≤ 0.2

Q: Which “one-hybrid fitness for binding NBS DNA” value does the source give for VHGR here?
A: ≤ 0.2

Q: For KFVG, which “one-hybrid fitness for binding NBS DNA” value is on record?
A: ≤ 0.2

Q: For QWTC, which “one-hybrid fitness for binding NBS DNA” value is on record?
A: ≤ 0.2

Q: For TDET, which “one-hybrid fitness for binding NBS DNA” value is on record?
A: ≤ 0.2

Q: NCDR was tested. Which “one-hybrid fitness for binding NBS DNA” value did it give?
A: ≤ 0.2

Q: AGLK was tested. Which “one-hybrid fitness for binding NBS DNA” value did it give?
A: ≤ 0.2

Q: For QLET, which “one-hybrid fitness for binding NBS DNA” value is on record?
A: ≤ 0.2

Q: How did the “one-hybrid fitness for binding NBS DNA” value turn out when KCHV was run?
A: ≤ 0.2

Q: With ACYM as the variant, how does the “one-hybrid fitness for binding NBS DNA” value read?
A: ≤ 0.2

Q: Which “one-hybrid fitness for binding NBS DNA” value does the source give for WDLS here?
A: ≤ 0.2

Q: With RCYN as the variant, how does the “one-hybrid fitness for binding NBS DNA” value read?
A: ≤ 0.2

Q: With MRNG as the variant, how does the “one-hybrid fitness for binding NBS DNA” value read?
A: ≤ 0.2

Q: For HICG, which “one-hybrid fitness for binding NBS DNA” value is on record?
A: ≤ 0.2

Q: How did the “one-hybrid fitness for binding NBS DNA” value turn out when IVHG was run?
A: ≤ 0.2

Q: How did the “one-hybrid fitness for binding NBS DNA” value turn out when CCAT was run?
A: ≤ 0.2

Q: For EHFR, which “one-hybrid fitness for binding NBS DNA” value is on record?
A: ≤ 0.2

Q: With GLLI as the variant, how does the “one-hybrid fitness for binding NBS DNA” value read?
A: ≤ 0.2

Q: With AQNR as the variant, how does the “one-hybrid fitness for binding NBS DNA” value read?
A: ≤ 0.2

Q: For VVYP, which “one-hybrid fitness for binding NBS DNA” value is on record?
A: ≤ 0.2

Q: How did the “one-hybrid fitness for binding NBS DNA” value turn out when YCDS was run?
A: ≤ 0.2

Q: With DDHR as the variant, how does the “one-hybrid fitness for binding NBS DNA” value read?
A: ≤ 0.2

Q: With EELT as the variant, how does the “one-hybrid fitness for binding NBS DNA” value read?
A: ≤ 0.2

Q: Which “one-hybrid fitness for binding NBS DNA” value does the source give for VDYR here?
A: ≤ 0.2

Q: Which “one-hybrid fitness for binding NBS DNA” value does the source give for VMNN here?
A: ≤ 0.2

Q: Which “one-hybrid fitness for binding NBS DNA” value does the source give for TSAM here?
A: ≤ 0.2

Q: DYAI was tested. Which “one-hybrid fitness for binding NBS DNA” value did it give?
A: ≤ 0.2

Q: How did the “one-hybrid fitness for binding NBS DNA” value turn out when RPPS was run?
A: ≤ 0.2

Q: Which “one-hybrid fitness for binding NBS DNA” value does the source give for RQAF here?
A: ≤ 0.2

Q: Which “one-hybrid fitness for binding NBS DNA” value does the source give for PMTA here?
A: ≤ 0.2

Q: For AYTN, which “one-hybrid fitness for binding NBS DNA” value is on record?
A: ≤ 0.2

Q: Which “one-hybrid fitness for binding NBS DNA” value does the source give for QKGC here?
A: ≤ 0.2

Q: For ANAQ, which “one-hybrid fitness for binding NBS DNA” value is on record?
A: ≤ 0.2

Q: How did the “one-hybrid fitness for binding NBS DNA” value turn out when MDSG was run?
A: ≤ 0.2

Q: For LQNH, which “one-hybrid fitness for binding NBS DNA” value is on record?
A: ≤ 0.2

Q: How did the “one-hybrid fitness for binding NBS DNA” value turn out when PFWR was run?
A: ≤ 0.2

Q: Which “one-hybrid fitness for binding NBS DNA” value does the source give for TVTI here?
A: ≤ 0.2

Q: How did the “one-hybrid fitness for binding NBS DNA” value turn out when GTCR was run?
A: ≤ 0.2

Q: Which “one-hybrid fitness for binding NBS DNA” value does the source give for AHHE here?
A: ≤ 0.2

Q: How did the “one-hybrid fitness for binding NBS DNA” value turn out when PCTW was run?
A: ≤ 0.2

Q: How did the “one-hybrid fitness for binding NBS DNA” value turn out when WPSR was run?
A: ≤ 0.2

Q: How did the “one-hybrid fitness for binding NBS DNA” value turn out when QAKP was run?
A: ≤ 0.2

Q: With RMPV as the variant, how does the “one-hybrid fitness for binding NBS DNA” value read?
A: ≤ 0.2

Q: QINY was tested. Which “one-hybrid fitness for binding NBS DNA” value did it give?
A: ≤ 0.2

Q: Which “one-hybrid fitness for binding NBS DNA” value does the source give for PAHT here?
A: ≤ 0.2

Q: How did the “one-hybrid fitness for binding NBS DNA” value turn out when KLVR was run?
A: ≤ 0.2

Q: CYGR was tested. Which “one-hybrid fitness for binding NBS DNA” value did it give?
A: ≤ 0.2

Q: How did the “one-hybrid fitness for binding NBS DNA” value turn out when EMLQ was run?
A: ≤ 0.2

Q: Which “one-hybrid fitness for binding NBS DNA” value does the source give for PSCK here?
A: ≤ 0.2

Q: With LQAY as the variant, how does the “one-hybrid fitness for binding NBS DNA” value read?
A: ≤ 0.2

Q: How did the “one-hybrid fitness for binding NBS DNA” value turn out when PNFT was run?
A: ≤ 0.2

Q: With TAPP as the variant, how does the “one-hybrid fitness for binding NBS DNA” value read?
A: ≤ 0.2

Q: Which “one-hybrid fitness for binding NBS DNA” value does the source give for PWNY here?
A: ≤ 0.2

Q: For TAPI, which “one-hybrid fitness for binding NBS DNA” value is on record?
A: ≤ 0.2

Q: For AIPW, which “one-hybrid fitness for binding NBS DNA” value is on record?
A: ≤ 0.2

Q: With RIMY as the variant, how does the “one-hybrid fitness for binding NBS DNA” value read?
A: ≤ 0.2

Q: MVCD was tested. Which “one-hybrid fitness for binding NBS DNA” value did it give?
A: ≤ 0.2

Q: How did the “one-hybrid fitness for binding NBS DNA” value turn out when PVMN was run?
A: ≤ 0.2

Q: VSKH was tested. Which “one-hybrid fitness for binding NBS DNA” value did it give?
A: ≤ 0.2

Q: VRGM was tested. Which “one-hybrid fitness for binding NBS DNA” value did it give?
A: ≤ 0.2

Q: For SRPP, which “one-hybrid fitness for binding NBS DNA” value is on record?
A: ≤ 0.2

Q: With PHNW as the variant, how does the “one-hybrid fitness for binding NBS DNA” value read?
A: ≤ 0.2

Q: With QIDG as the variant, how does the “one-hybrid fitness for binding NBS DNA” value read?
A: ≤ 0.2

Q: Which “one-hybrid fitness for binding NBS DNA” value does the source give for TTRL here?
A: ≤ 0.2

Q: Which “one-hybrid fitness for binding NBS DNA” value does the source give for INVS here?
A: ≤ 0.2

Q: Which “one-hybrid fitness for binding NBS DNA” value does the source give for AGWG here?
A: ≤ 0.2

Q: Which “one-hybrid fitness for binding NBS DNA” value does the source give for DLQE here?
A: ≤ 0.2

Q: Which “one-hybrid fitness for binding NBS DNA” value does the source give for RSMC here?
A: ≤ 0.2

Q: DVRG was tested. Which “one-hybrid fitness for binding NBS DNA” value did it give?
A: ≤ 0.2

Q: Which “one-hybrid fitness for binding NBS DNA” value does the source give for AGCR here?
A: ≤ 0.2

Q: QKMQ was tested. Which “one-hybrid fitness for binding NBS DNA” value did it give?
A: ≤ 0.2

Q: Which “one-hybrid fitness for binding NBS DNA” value does the source give for KSER here?
A: ≤ 0.2

Q: Which “one-hybrid fitness for binding NBS DNA” value does the source give for KGKQ here?
A: ≤ 0.2

Q: For SSYA, which “one-hybrid fitness for binding NBS DNA” value is on record?
A: ≤ 0.2

Q: With PCFS as the variant, how does the “one-hybrid fitness for binding NBS DNA” value read?
A: ≤ 0.2

Q: How did the “one-hybrid fitness for binding NBS DNA” value turn out when AYAK was run?
A: ≤ 0.2

Q: With YFRG as the variant, how does the “one-hybrid fitness for binding NBS DNA” value read?
A: ≤ 0.2

Q: ADRF was tested. Which “one-hybrid fitness for binding NBS DNA” value did it give?
A: ≤ 0.2

Q: For VMGY, which “one-hybrid fitness for binding NBS DNA” value is on record?
A: ≤ 0.2

Q: How did the “one-hybrid fitness for binding NBS DNA” value turn out when EVSM was run?
A: ≤ 0.2

Q: SPPY was tested. Which “one-hybrid fitness for binding NBS DNA” value did it give?
A: ≤ 0.2

Q: Which “one-hybrid fitness for binding NBS DNA” value does the source give for PMMN here?
A: ≤ 0.2

Q: MWYT was tested. Which “one-hybrid fitness for binding NBS DNA” value did it give?
A: ≤ 0.2

Q: Which “one-hybrid fitness for binding NBS DNA” value does the source give for TQCC here?
A: ≤ 0.2

Q: DSTC was tested. Which “one-hybrid fitness for binding NBS DNA” value did it give?
A: ≤ 0.2

Q: With QEYY as the variant, how does the “one-hybrid fitness for binding NBS DNA” value read?
A: ≤ 0.2

Q: How did the “one-hybrid fitness for binding NBS DNA” value turn out when RVWG was run?
A: ≤ 0.2

Q: With AKAT as the variant, how does the “one-hybrid fitness for binding NBS DNA” value read?
A: ≤ 0.2

Q: For KVTL, which “one-hybrid fitness for binding NBS DNA” value is on record?
A: ≤ 0.2

Q: How did the “one-hybrid fitness for binding NBS DNA” value turn out when HLKF was run?
A: ≤ 0.2

Q: For GWVW, which “one-hybrid fitness for binding NBS DNA” value is on record?
A: ≤ 0.2
